# Laboratory results from PubChem BioAssay AID1345083 (National Center for Advancing Translational Sciences (NCATS), 2018).
# Values joined by “and” are separate entries in the source; they are usually repeats but may differ in a detail not shown here. Identical values can stand only once. Out of some 94,000 compounds screened, about 6,200 (6.6%) were called active. This list was built around the results that the source calls inconclusive (neither active nor inactive); the mix of calls is not that of the screen. Calls follow the shape of the dose curve; as a rule, active = well fitted inhibition curve with a large enough effect; inconclusive = small, poorly fitted or top-dose-only effect; inactive = flat fitted curve, though single readings scatter. A potency beside an inconclusive call is a rough fit, not a confirmed value.
# Test: Cytotoxic Profiling in HEK 293 Cell Line of Diverse Libraries Using Quantitative High-Throughput Screening; also: nearly all actives have a fitted effect of over 60% in size
# Details: HEK 293 viability, ATP luminescence (CellTiter-Glo), 48-72 h; series mostly up to 115 µM
# Procedure, shortened: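 Viability of HEK 293 cells, plated at 250 cells/well, was judged by cellular ATP after compound treatment for 48 or 72 hr. Luminescence was imaged 10 min after CellTiter-Glo addition at room temperature.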
# Potency is read from the fitted curve at half-maximal effect; tags tell the direction and shape of the fitted curve.
row,SMILES,Potency
1,CSc1ccc(-c2cccc(C(=O)NCCNC(=O)c3ccc(Cl)nc3)c2)cc1,inactive
2,CC(C)CN1CCN(C(=O)C2CCc3ncc(-c4ccc(F)cc4)n3C2)CC1 (configuration not stated),"inconclusive: 79.4 µM [inhibitor, single point]"
3,Cc1ccccc1Oc1c(CCC(=O)N(C)C(C)C)c(C)nn1-c1ccccc1C,"inconclusive: 50.1 µM [inhibitor, partial curve, poor fit]"
4,O=C(NC1CCN(c2ccc3nnc(-c4ccccc4)n3n2)C1)c1ccc(Cl)cc1 (configuration not stated),inactive
5,O=C1NCCCCCCN(Cc2ccncc2)[C@@H]2CN(Cc3ccncc3F)CC[C@@H]12,inactive
6,O=C1CCN(C(=O)C2CCN(S(=O)(=O)c3cccs3)CC2)CCCCCCN1,inactive
7,O=C(NCc1ccc(C(F)(F)F)cc1)C1CN(c2cccc(Cl)c2)C(=O)N1 (configuration not stated),"inconclusive: 79.4 µM [inhibitor, partial curve, poor fit]"
8,COC[C@@H]1CN(Cc2ccc(C)o2)C[C@H]1C(=O)N(C)C,inactive
9,Cc1ccc(C(=O)N2CCC3(CNc4ccccc4[S+](=O)([O-])N3)C2)cc1 (configuration not stated),"inconclusive: 56.2 µM [inhibitor, partial curve, poor fit]"
10,O=C(NCc1cccs1)c1nc(-c2ccc(Cl)cc2Cl)c2ccccn12,"inconclusive: 31.6 µM [inhibitor, partial curve, poor fit]"
11,O=C(O)CCC1CCCN(S(=O)(=O)c2cccc(F)c2)C1 (configuration not stated),inactive
12,O=C1CCN(C(=O)[C@@H](Cc2ccccc2)NC(=O)C2CCCCC2)CCOCCN1,"inconclusive: 100 µM [inhibitor, single point]"
13,Cc1csc(NC(=O)c2nc3c(o2)CCN(Cc2ccc4[nH]ccc4c2)CC3)n1,active: 100 µM
14,Cc1noc(-c2ccc3c(c2)OCO3)c1C(=O)NCc1cc(F)cc(F)c1,active: 31.6 µM
15,CNc1ncccc1C(=O)N1CCCN(Cc2ccc(F)cc2)C(C(C)C)C1 (configuration not stated),"inconclusive: 50.1 µM [inhibitor, partial curve, poor fit]"
16,COc1ccccc1-c1cccc(C(=O)N2CCC[C@H]2C(=O)NCc2cccs2)c1,active: 79.4 µM
17,Cn1c(CN2CC[C@H](c3nc4ccccc4[nH]3)C2)nc2ccccc21,active: 44.7 µM
18,CC(C)c1noc(-c2cn(C3CCCN(C(=O)c4ccc(F)cc4)C3)nn2)n1 (configuration not stated),"inconclusive: 31.6 µM [inhibitor, partial curve, poor fit]"
19,CCc1ccccc1NC(=O)Cn1c(-c2ccc(F)cc2)nc(C)cc1=O,inactive
20,CC1=C(C(=O)N(C)C)C(c2ccc(Cl)cc2)N2C(CC(=O)NCc3ccco3)=CSC2=N1 (configuration not stated),"inconclusive: 89.1 µM [inhibitor, single point]"
21,CN(Cc1cc(-c2cccs2)n[nH]1)C[C@@H]1CCCN2CCCC[C@H]12,inactive
22,Cn1ncc2c(C(=O)NCc3ccc4c(c3)OCO4)cc(-c3ccc(Cl)cc3Cl)nc21,"inconclusive: 17.8 µM [inhibitor, full curve, poor fit]"
23,Cc1cnccc1CN(C)C(=O)c1cc(COc2ccc(-n3cncn3)cc2)on1,"inconclusive: 8.91 µM [inhibitor, full curve]"

row,SMILES,Potency
1,COc1ccc2c(c1)C(CNCc1ccccc1)=CC(C)(C)CO2,"inconclusive: 79.4 µM [inhibitor, partial curve, poor fit]"
2,O=C(CC1CCCCC1)N1CCC(Cc2nc(C3CC3)n[nH]2)C1 (configuration not stated),inactive
3,O=C(Nc1cccc(F)c1)c1cc2n(n1)CC(c1ccc(Cl)cc1)OC2 (configuration not stated),"inconclusive: 100 µM [inhibitor, single point]"
4,CCOc1ccccc1CN1CCN(c2cc(C)nc(N)n2)CC1CCO (configuration not stated),"inconclusive: 50.1 µM [inhibitor, partial curve, poor fit]"
5,CC(C)(C)c1ccc(NC(=O)O[C@@H]2CO[C@H]3[C@@H]2OC[C@@H]3Nc2nccc(-c3ccc(-c4ccccc4)cc3)n2)cc1,active: 28.2 µM
6,O=C1CCC[C@H]2C3CC(CN(c4nc5ccccc5s4)C3)CN12 (some centres not stated),inactive
7,COCCC(=O)N[C@H]1CC[C@]2(C)CCC([C@H](C)C(=O)NCc3cccs3)[C@H](O)[C@H]2[C@@H]1C (some centres not stated),"inconclusive: 89.1 µM [inhibitor, single point]"
8,CCCCc1cc(C[C@H]2CNCC[C@H]2CC(=O)N(CC)CC)no1,inactive
9,COC(=O)[C@@H]1Cc2c([nH]c3ccccc23)[C@H]2C[C@@H](NCCN(C)C)C[C@@H](c3cccc(Cl)c3)N21,active: 6.31 µM
10,Cn1ncc2c(C(=O)N3CCN(c4ncccn4)CC3)cc(-c3ccc(Cl)nc3)nc21,"inconclusive: 50.1 µM [inhibitor, partial curve, poor fit] and inconclusive: 15.8 µM [inhibitor, full curve]"
11,c1ccc(CCc2nnc3n2CCNCC3)cc1,inactive
12,COc1ccc(C)cc1NC(=O)Cn1ccn2nc(-c3ccccc3)c(CO)c2c1=O,"inconclusive: 89.1 µM [inhibitor, single point]"
13,O=C(NC1CCN(c2cc(-c3cccs3)[nH]n2)CC1)c1cc(F)ccc1Cl,"inconclusive: 89.1 µM [inhibitor, single point]"
14,Cc1ccc(C)c(OCC(=O)c2ccc3c(c2)N(CC(=O)NCC2CC2)C(=O)CO3)c1,"inconclusive: 89.1 µM [inhibitor, single point]"
15,Cc1ccc(C(=O)N2CCC(c3nn(-c4ccc(F)cc4)c(=O)[nH]3)CC2)cc1,"inconclusive: 89.1 µM [inhibitor, single point]"
16,Cc1noc([C@H]2CCN(C(=O)CC3CCCC3)C[C@H]2NC(=O)C2CC2)n1,inactive
17,Cc1cccc(NC(=O)N2CCCC2c2noc(COc3ccc(F)cc3)n2)c1 (configuration not stated),"inconclusive: 56.2 µM [inhibitor, partial curve, poor fit]"
18,CC(C)Cn1c(=O)c(C(=O)NCC(F)(F)F)nc2cccnc21,inactive
19,O=C(c1ccccc1)N1CCc2sc(C(=O)N3CCN(c4ccccc4)CC3)cc2C1,"inconclusive: 35.5 µM [inhibitor, partial curve, poor fit]"
20,COc1cc2c(cc1OC)C(CNC(=O)CC(C)C)N(C(=O)Nc1cccc(F)c1)CC2 (configuration not stated),"inconclusive: 100 µM [inhibitor, single point]"
21,CNC(=O)Nc1cccn2nc(-c3ccccc3)nc12,"inconclusive: 35.5 µM [inhibitor, partial curve, poor fit]"
22,O=C(CCC1CCCN(S(=O)(=O)c2ccccc2)C1)N1CCCCC1 (configuration not stated),"inconclusive: 35.5 µM [inhibitor, full curve]"
23,CCCNC(=O)N1CC(Oc2ccc(-c3nc(-c4ccccc4)no3)cc2)C1,inactive

row,SMILES,Potency
1,Fc1ccc(Cc2nc3nccc(-c4ccsc4)n3n2)cc1,"inconclusive: 89.1 µM [inhibitor, single point]"
2,COc1cccc(C(=O)N2CCC(C(=O)N3CCC(c4nc5ncccc5[nH]4)CC3)CC2)c1,inactive
3,O=C(COc1ccc(F)cc1)N1CCC(n2cc(-c3nc(-c4ccccc4)no3)nn2)C1 (configuration not stated),"inconclusive: 50.1 µM [inhibitor, partial curve, poor fit]"
4,COc1ccc(CN2C=C(C(=O)OCc3nc(C)no3)C(C)=NS2(=O)=O)cc1,inactive
5,NCC(=O)N1Cc2ccccc2CC2(CCCCN2CC2CCCC2)C1 (configuration not stated),"inconclusive: 89.1 µM [inhibitor, partial curve, poor fit]"
6,COc1ccccc1-c1cc(C(=O)NCc2ccnc(N)c2)c2c(c1)ncn2C,"inconclusive: 5.01 µM [inhibitor, full curve, poor fit]"
7,COc1ccccc1N1CCN(C(=O)CCc2ccccc2C)CC1=O,inactive
8,CC1Oc2ccc(NC(=O)c3ccc([N+](=O)[O-])cc3)cc2CN(Cc2ccccc2)C1=O (configuration not stated),active: 31.6 µM
9,OC[C@@H]1CNC[C@H]1C1CCN(Cc2ccsc2)CC1,inactive
10,COCCCn1c(=O)c(C(=O)N2CCN(C(=O)c3ccc(OC)cc3)CC2)nc2cccnc21,inactive
11,Cc1nn(-c2ccccc2)c2c1C(C(C)C)N(C1CN(C(=O)Cc3ccccn3)C1)C2=O (configuration not stated),"inconclusive: 50.1 µM [inhibitor, partial curve, poor fit]"
12,CC(C)N1CCC(N2C[C@@H](CO)[C@H](c3nc(C4CC4)no3)C2)CC1,"inconclusive: 39.8 µM [inhibitor, single point]"
13,Cc1ccc(NC(=O)N2CCCC(N3C(=O)c4c(c(C)nn4-c4ccccc4)C3C)C2)cc1F (configuration not stated),"inconclusive: 39.8 µM [inhibitor, partial curve]"
14,CO[C@H]1CN(C(C)C)[C@H]1C1CCN(C(=O)c2ccc(C#N)cc2)CC1,inactive
15,COc1ccc(CNC[C@H]2O[C@H](Cc3cc(-c4cccc(O)c4)on3)CC[C@@H]2O)cc1,"inconclusive: 112 µM [inhibitor, partial curve, poor fit]"
16,CN1CCN(c2ccc(-c3noc([C@@H]4CCCN4C4CCCCC4)n3)cn2)CC1,active: 79.4 µM
17,CC(Cn1cccn1)Nc1ccc(-c2nc(-c3ccccc3F)no2)cn1 (configuration not stated),active: 44.7 µM
18,COc1ccc(-n2c(=O)c(C(=O)N3CCC(c4ccccc4)CC3)nc3cccnc32)cc1,inactive
19,O=C(c1n[nH]c2ccccc12)N1CCC(c2nc(CCOCC3CC3)no2)C1 (configuration not stated),"inconclusive: 89.1 µM [inhibitor, single point]"
20,O=C(C[C@@H]1C[C@@H]2C=C[C@H]1C2)NCc1cccnc1-n1cnc2ccccc21,inactive
21,CN(Cc1ccc(N2CCOCC2)cc1)C(=O)CCC[C@H]1NC[C@@H]2C[C@H]1CN(Cc1ccccc1)C2,"inconclusive: 44.7 µM [inhibitor, partial curve, poor fit]"
